Molecular target: T1, recombinant HSP70 (Heat Shock 70 kDa Protein) (human, UniProt P0DMV8)
T1 construct: also called HSP72; human HSP70
Assay: BLI (Octet Red), biotinylated TLR2 on streptavidin sensors, HSP70 in solution, 1:1 model global fit
Method: Protein-protein interaction experiments were conducted at 25° C. in PBS with an Octet Red instrument (Forte Bio, Menlo Park, Calif., USA) by biolayer interferometry (BLI). The ligand (cmHSP70 or A8 or TLR2) was biotinylated using EZ-Link NHS-PEG₄-biotin (Thermo Fisher Scientific, Bonn, Germany) according to the manufacturer's protocol and immobilized at a concentration of 20 μg/ml on streptavidin sensors (ForteBio, Menlo Park, Calif., USA). These functionalized biosensors were dipped into black Greiner 96-well microplates agitated at […] and filled with a solution of 200 μL containing the analyte. All sensorgrams were corrected for baseline drift by subtracting a control sensor exposed to running buffer only. Each KD was determined with a 1:1 stoichiometry model using a global fit with Rmax unlinked by sensor (Forte Bio, Data analysis software version 7.1.0.89).
Protein-protein interaction experiments were conducted with an Octet Red instrument (ForteBio, USA). The ligand (A8 or TLR2) was biotinylated using EZ-Link NHS-PEG₄-biotin (2 nM, 30 min, RT, Thermo Fisher Scientific, Germany) and immobilized on streptavidin sensors (96-well plate black, ForteBio, USA). […] Each KD was determined with a 1:1 stoichiometry model using a global fit with Rmax unlinked by sensor (ForteBio, Data analysis software version 7.1.0.89).

- Kd: 33 nM
B1: recombinant TLR2 (Toll-like receptor 2) (receptor)
chain: not shown
modifications: biotinylated with EZ-Link NHS-PEG4-biotin when immobilised on streptavidin sensors for BLI (site not stated)
notes: also called TRL2; CD282
